Laboratory results published in the supplement of paper PMC12217912.
This is one part of the list. Sequences were assembled here from the parent chain. Inactive controls read about 0.05.

B1: TEV protease; numbered along this chain (parent)
chain: MGESLFKGPRDYNPISSSICHLTNESDGHTTSLYGIGFGPFIITNKHLFRRNNGTLVVQSLHGVFKVKDTTTLQQHLVDGRDMIIIRMPKDFPPFPQKLKFREPQREERICLVTTNFQTKSMSSMVSDTSCTFPSGDGIFWKHWIQTKDGQCGSPLVSTRDGFIVGIHSASNFTNTNNYFTSVPKNFMELLTNQEAQQWVSGWRLNADSVLWGGHKVFMVKPEEPFQPVKEATQL

Variants of: B1
Experiment: raw area under fraction-flipped curve 0-4 h after induction (AUC4h, not background-subtracted), DNA-recorder readout of cleavage of the substrate (dimensionless); higher = more cleavage of the substrate by the protease variant
Conditions: temperature: 34 °C; time window: 0-4 h after rhamnose induction
Method: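 In vivo DNA recorder in E. coli TOP10(DE3) ΔrhaA at 34 °C. Each TEVp single-site mutant (parent TEVp 0) is paired with a single-site variant of the 7-mer TEVs (canonical ENLYFQ|S). The substrate sits between flexible linkers in a Bxb1-sfGFP-TEVs-SsrA fusion, so cleavage stabilises Bxb1 and speeds flipping of a recombination array, read by NGS. The value is the raw area under the fraction-flipped curve over 0-4 h after rhamnose induction (AUC4h), with ≥20 reads per time point. It is not background-subtracted; inactive controls average about 0.047.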
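Also: Bxb1 expression induced with 0.2% (w/v) L-rhamnose at OD600 near 0.5, cultures sampled hourly, flipped fraction per protease–substrate barcode pair counted by paired-end Illumina sequencing.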

Variant	area with substrate ENLAFQS	area with substrate ENLDFQS	area with substrate ENLEFQS	area with substrate ENLFFQS	area with substrate ENLHFQS	area with substrate ENLIFQS	area with substrate ENLKFQS	area with substrate ENLLFQS	area with substrate ENLMFQS	area with substrate ENLNFQS	area with substrate ENLPFQS	area with substrate ENLQFQS	area with substrate ENLRFQS	area with substrate ENLSFQS	area with substrate ENLCFQS	area with substrate ENLWFQS	area with substrate ENLGFQS	area with substrate ENLTFQS	area with substrate ENLVFQS
T55V	0.0594	0.0518	0.0651	0.0904	0.0523	0.0868	0.0757	0.0631	0.0782	0.0655	0.0524	0.0732	0.0815	0.049					
G80D	0.0755	0.0228	0.0617	0.0787	0.0817	0.0751	0.0894			0.0651	0.0471	0.0628	0.0711		0.0489	0.0651			
G80M	0.06	0.0687	0.0949	0.0975		0.0686	0.0836		0.066	0.0661	0.0671						0.0588	0.0668	
G80Q	0.0669	0.0706	0.061	0.0908	0.0711	0.0939	0.0645	0.0625	0.063	0.0643	0.0608	0.0767	0.0913	0.0646	0.0788	0.0686			0.0668
G80E	0.076	0.0683		0.093			0.0765	0.0787		0.0591		0.0682	0.0838	0.0686	0.0736				0.113
G80I	0.0524	0.0442	0.0575	0.0599	0.0581	0.0674	0.0655			0.0562	0.0535		0.0516	0.0629			0.0613		
G80A	0.0745		0.0638	0.0968	0.0727		0.0976	0.0778			0.0614	0.0749		0.0358	0.0655				0.0707
V64G	0.0669	0.0658		0.0739	0.0676	0.0629	0.0703			0.066	0.0539				0.0504	0.0647			
V64D	0.0502	0.0646	0.0541	0.116	0.0557	0.0763	0.0885			0.0833			0.0594	0.0666					0.0796
V64M	0.0728	0.108	0.0527	0.087	0.0743	0.0874	0.0768			0.0763	0.0586	0.0714		0.0534	0.0697	0.0602			
V64A	0.069	0.0755		0.0983	0.0604	0.0691	0.0356	0.0754	0.0756	0.0622			0.0766	0.0598	0.0773			0.0653	
L77K	0.0578		0.0611	0.058	0.0707		0.0744	0.0517		0.0769	0.0565		0.0556			0.0406	0.0562		
L77F	0.0638	0.0555	0.0622	0.0678	0.0593	0.0701	0.0661	0.0761	0.0658	0.0715	0.041	0.0526	0.057	0.052	0.062	0.07			0.0816
K68R	0.0712	0.0474		0.0747	0.0729	0.0905	0.0924	0.0384		0.0663	0.0745	0.117	0.0754	0.0603		0.0697			
K66S	0.0524	0.0673		0.0909				0.0298		0.0679	0.0732	0.0239							
L56R	0.036	0.0462		0.0544	0.0252	0.038	0.0625		0.0555	0.0459	0.0481	0.053		0.0365		0.0504	0.0511		
L56H	0	0.0499		0.0821		0.0482	0.0564			0.0232	0.0519	0.0417	0.0468	0.0613		0.0462			0.0508
L56F	0.0498	0.0621	0.0593	0.0676	0.0611	0.0539	0.0716	0.0606	0.075	0.0645	0.0606	0.0634	0.0697	0.0575		0.0704	0.0596		0.0781
L56G	0.0308			0.0663	0.0441		0.0545	0.0503		0.0457	0.0449			0.0514	0.0558				0.0491
G63W	0.0659	0.0507	0.0624	0.0818	0.0624	0.0797	0.0762	0.0642	0.0723	0.0645	0.0552	0.106	0.061	0.0539	0.0629	0.0663	0.0491	0.0941	0.0762
H76C	0.0716	0.0649	0.068	0.0978	0.0685	0.109	0.0808	0.0671		0.0619	0.0721	0.0789	0.0721				0.071		0.0896
D79N	0.056			0.064	0.053		0.102	0.0374		0.0544	0.0338	0.0888	0.0665	0.0437					0.0851
L61C	0.0617	0.0624	0.0703	0.0946	0.101	0.0909	0.0812	0.0672	0.0771	0.0641	0.0674	0.0659	0.0813	0.0637	0.0774		0.0572	0.0682	0.0886
S60T	0.0574	0.0696	0.0634	0.126	0.0703	0.0666	0.0947				0.0718	0.0673	0.075	0.0785	0.0904		0.0758	0.0704	0.0819
T72F	0.0694	0.0651		0.0932		0.0807	0.0702		0.0635	0.0681	0.0631	0.0566	0.0634	0.0776	0.0828	0.0559			
D69P	0.0606	0.0713		0.0837	0.0668	0.0719	0.06	0.0653	0.065	0.0601	0.0436	0.0663	0.0645	0.0583	0.0883	0.0643		0.0731	0.0871
